# Where a chain is given by its changes, count along the chain named. Names and notes keep the numbering of the source.
# T1: (his)6-IscS, E. coli cysteine desulfurase IscS (E. coli, UniProt P0A6B7 1-404)
# T1 construct: IscS, cysteine desulfurase of E. coli; not shown: His6, N-terminal, kept
# T1 sequence (looked up): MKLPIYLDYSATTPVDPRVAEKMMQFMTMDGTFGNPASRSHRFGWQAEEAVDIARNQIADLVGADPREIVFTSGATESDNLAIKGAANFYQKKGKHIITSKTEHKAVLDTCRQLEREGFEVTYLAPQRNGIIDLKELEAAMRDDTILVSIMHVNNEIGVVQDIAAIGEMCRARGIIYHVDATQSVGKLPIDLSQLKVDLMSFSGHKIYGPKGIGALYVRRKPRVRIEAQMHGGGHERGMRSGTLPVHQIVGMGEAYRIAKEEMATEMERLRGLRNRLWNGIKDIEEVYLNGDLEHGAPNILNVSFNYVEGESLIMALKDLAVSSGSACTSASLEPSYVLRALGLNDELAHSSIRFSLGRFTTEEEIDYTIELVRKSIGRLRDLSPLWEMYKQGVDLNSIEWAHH
# B1: IscU-(his)6, wild-type E. coli IscU scaffold protein (natural protein, UniProt P0ACD4 1-128, looked up)
# chain: MAYSEKVIDHYENPRNVGSFDNNDENVGSGMVGAPACGDVMKLQIKVNDEGIIEDARFKTYGCGSAIASSSLVTEWVKGKSLDEAQAIKNTDIAEELELPPVKIHCSILAEDAIKAAIADYKSKREAK
# notes: IscU, Fe-S cluster scaffold protein of E. coli K-12 MG1655; coding region of iscU cloned NdeI/HindIII into pET21a+; the methods say the proteins were mixed with Fe(SO4)2(NH4)2, L-cysteine and DTT; By gel filtration it exists mainly as a dimer; also called IscUWT; His-tagged IscUWT; not shown: His6, C-terminal, kept
# B2: IscU_(I108M)-(his)6, E. coli IscU with the Ile108Met substitution (natural protein, UniProt P0ACD4 1-128, looked up)
# chain: B1 chain with I108M
# notes: IscU, Fe-S cluster scaffold protein of E. coli K-12 MG1655; coding region amplified from pIscUIM and cloned NdeI/HindIII into pET21a+; the methods say the proteins were mixed with Fe(SO4)2(NH4)2, L-cysteine and DTT; By gel filtration it exists mainly as a dimer; also called IscUIM; His-tagged IscUIM; not shown: His6, C-terminal, kept
# Assays:
# [1] = biological target: T1, (his)6-IscS, E. coli cysteine …; assay: co-elution on anion exchange chromatography (QFF); purified His-tagged proteins mixed anaerobically 1:1:1 (144 uM each) for 40 min with 4-fold excess Fe(SO4)2(NH4)2, 10-fold excess L-cysteine, 5 mM DTT in 50 mM Tris-HCl pH 8; loaded on a 1-mL QFF column, eluted with a gradient to 1 M NaCl; fractions analysed by SDS-PAGE; the single proteins elute at lower salt; conditions: both partners purified
# [2] = biological target: the molecule itself; assay: SEC; gel filtration on Superdex 75 10/300 GL in 0.1 M Tris-HCl pH 8, 50 mM NaCl; oligomeric state from a calibration curve (ribonuclease A, chymotrypsinogen A, ovalbumin)
Binder,binding result [1],stoichiometry N [2]
B1,binds,–
B2,binds,2

# Source: paper PMC4440780, “Turning Escherichia coli into a Frataxin-Dependent Organism” (PLoS Genetics, 2015)
